# Measurements: the supplement of paper PMC4967469
# Key:
# Test in all cases: Viability of human cancer cell lines after 72 h of drug (GDSC screen)
# BMN-673 = compound: Cn1ncnc1[C@H]1c2n[nH]c(=O)c3cc(F)cc(c23)N[C@@H]1c1ccc(F)cc1 [BMN-673]; details: top dose 10 µM; top dose inferred
# Method: (§1)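 Human cancer cell lines in 384-well plates, medium with 10% serum, drug for 72 h over a 256-fold dose range (nine 2-fold or five 4-fold steps up to the top dose). Adherent lines were fixed and stained with the nucleic acid dye Syto60, suspension lines read with resazurin; signal relative to control wells, capped at 0 and 100%. One two-parameter sigmoid per drug and line, fitted in a mixed model over all curves with the slope shared within a line.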
# AZD6482 = compound: Cc1cc([C@@H](C)Nc2ccccc2C(=O)O)c2nc(N3CCOCC3)cc(=O)n2c1 [AZD6482]
# Method: as §1
# MLN4924 = compound: NS(=O)(=O)OC[C@@H]1C[C@@H](n2ccc3c(N[C@H]4CCc5ccccc54)ncnc32)C[C@@H]1O [MLN4924]; details: top dose 1 µM; top dose inferred
# Method: as §1
# [1] = top dose 5 µM, screen: GDSC drug entry 1066, top dose inferred
# [2] = top dose 5.12 µM, screen: GDSC drug entry 156
Cell Line,AUC (BMN-673),IC50 (BMN-673) [µM],AUC (AZD6482; [1]),IC50 (AZD6482; [1]) [µM],AUC (AZD6482; [2]),IC50 (AZD6482; [2]) [µM],AUC (MLN4924),IC50 (MLN4924) [µM]
"Ramos-2G6-4C10 (Burkitt lymphoma, suspension)",0.96,> 10,0.826,2.46,0.937,> 5.12,0.935,> 1
"CTV-1 (acute myeloid leukaemia, suspension)",0.724,2.32,0.946,> 5,0.97,> 5.12,0.946,> 1
"GA-10 (Burkitt lymphoma, suspension)",0.967,> 10,0.818,2.27,0.553,0.437,0.922,> 1
"DB (B-cell lymphoma, suspension)",0.896,> 10,–,–,0.978,> 5.12,0.981,> 1
"Hep 3B2_1-7 (liver, adherent)",0.949,> 10,0.902,> 5,0.958,> 5.12,0.887,> 1
"LCLC-103H (large cell lung carcinoma, adherent)",0.988,> 10,0.906,> 5,0.882,4.54,0.963,> 1
"NCI-H647 (non-small cell lung carcinoma, adherent)",0.983,> 10,0.81,2.79,0.87,> 5.12,0.983,> 1
"EB-3 (Burkitt lymphoma, suspension)",0.975,> 10,0.977,> 5,0.913,> 5.12,0.852,0.981
"NKM-1 (acute myeloid leukaemia, suspension)",0.51,0.666,0.87,4.91,0.698,1.17,0.708,0.246
"KASUMI-1 (acute myeloid leukaemia, suspension)",0.976,> 10,0.691,1.08,0.756,1.76,0.714,0.253
"SW156 (kidney, adherent)",0.955,> 10,0.779,2.29,0.841,4.17,0.945,> 1
"BALL-1 (B-cell leukaemia, suspension)",0.663,1.55,0.989,> 5,–,–,0.978,> 1
"G-402 (soft tissue, adherent)",0.659,2.02,0.829,4.65,0.66,1.04,0.704,0.288
"EFO-27 (ovary, adherent)",0.96,> 10,0.916,> 5,0.85,> 5.12,0.978,> 1
"H2373 (mesothelioma, adherent)",0.799,6.28,0.94,> 5,0.919,> 5.12,0.758,0.43
"SKN-3 (head and neck, adherent)",0.835,8.3,0.889,> 5,0.95,> 5.12,0.703,0.26
"MFH-ino (soft tissue, adherent)",0.673,2.08,0.927,> 5,0.895,> 5.12,0.754,0.392
"KMOE-2 (acute myeloid leukaemia, suspension)",0.984,> 10,0.825,2.57,0.95,> 5.12,0.935,> 1
"EJM (lymphoid neoplasm, semi-adherent)",0.992,> 10,0.961,> 5,0.976,> 5.12,0.992,> 1
"BC-1 (B-cell lymphoma, suspension)",0.861,6.49,0.978,> 5,0.936,> 5.12,0.654,0.155
"KP-3 (pancreas, adherent)",0.961,> 10,0.974,> 5,0.88,> 5.12,0.976,> 1
"PCI-15A (head and neck, adherent)",0.771,3.88,0.895,> 5,0.896,> 5.12,0.799,0.486

Cell Line,AUC (BMN-673),IC50 (BMN-673) [µM],AUC (AZD6482; [1]),IC50 (AZD6482; [1]) [µM],AUC (AZD6482; [2]),IC50 (AZD6482; [2]) [µM],AUC (MLN4924),IC50 (MLN4924) [µM]
"KP-2 (pancreas, adherent)",0.962,> 10,0.965,> 5,0.945,> 5.12,0.877,> 1
"NCI-H187 (small cell lung carcinoma, suspension)",0.977,> 10,0.979,> 5,0.982,> 5.12,0.978,> 1
"UMC-11 (lung carcinoid, adherent)",0.976,> 10,0.989,> 5,0.986,> 5.12,0.958,> 1
"CAL-29 (bladder, adherent)",0.736,3.14,0.654,0.865,0.713,1.35,0.683,0.213
"DK-MG (glioma, adherent)",0.911,> 10,0.731,2.01,0.932,> 5.12,0.939,> 1
"JVM-2 (lymphoid neoplasm, suspension)",0.61,1.35,0.748,1.94,0.893,> 5.12,0.761,0.432
"HEL (acute myeloid leukaemia, semi-adherent)",0.549,0.828,0.988,> 5,0.963,> 5.12,0.68,0.18
"NCI-H1836 (small cell lung carcinoma, suspension)",0.986,> 10,0.984,> 5,0.979,> 5.12,0.985,> 1
"MKN1 (stomach, adherent)",0.965,> 10,0.977,> 5,0.962,> 5.12,0.91,> 1
"Ca-Ski (cervix, adherent)",0.798,5.45,0.97,> 5,0.742,1.74,0.761,0.396
"MKN45 (stomach, adherent)",0.919,> 10,0.979,> 5,0.982,> 5.12,0.841,0.978
"ML-2 (acute myeloid leukaemia, suspension)",0.471,0.526,0.966,> 5,0.847,3.16,0.618,0.127
"MDA-MB-361 (breast, adherent)",0.987,> 10,0.856,3.97,0.83,3.17,0.849,0.746
"HN (head and neck, adherent)",0.687,2,0.907,> 5,0.989,> 5.12,0.796,0.435
"ME-1 (acute myeloid leukaemia, suspension)",0.987,> 10,0.97,> 5,0.958,> 5.12,0.988,> 1
"NCI-H209 (small cell lung carcinoma, suspension)",0.226,0.0931,0.959,> 5,0.963,> 5.12,0.735,0.309
"HC-1 (hairy cell leukaemia, suspension)",0.677,1.91,0.964,> 5,0.826,2.93,0.753,0.322
"KYM-1 (rhabdomyosarcoma, adherent)",0.638,1.42,0.915,> 5,0.985,> 5.12,0.966,> 1
"NCI-H1703 (lung adenocarcinoma, adherent)",0.942,> 10,0.961,> 5,0.961,> 5.12,0.589,0.116
"BB49-HNC (head and neck, adherent)",0.657,2.05,–,–,–,–,0.876,> 1
"HCC1500 (breast, adherent)",0.987,> 10,0.955,> 5,0.955,> 5.12,0.987,> 1
"MONO-MAC-6 (acute myeloid leukaemia, suspension)",0.717,2.68,0.758,1.83,0.915,> 5.12,0.611,0.128

Cell Line,AUC (BMN-673),IC50 (BMN-673) [µM],AUC (AZD6482; [1]),IC50 (AZD6482; [1]) [µM],AUC (AZD6482; [2]),IC50 (AZD6482; [2]) [µM],AUC (MLN4924),IC50 (MLN4924) [µM]
"COLO-679 (melanoma, adherent)",0.933,> 10,0.893,> 5,0.88,> 5.12,0.674,0.204
"BEN (non-small cell lung carcinoma, adherent)",0.982,> 10,0.965,> 5,0.986,> 5.12,0.985,> 1
"HeLa (cervix, adherent)",–,–,0.979,> 5,0.968,> 5.12,0.799,0.454
"T47D (breast, adherent)",0.974,> 10,–,–,–,–,0.943,> 1
"SNU-1040 (large intestine, adherent)",0.979,> 10,–,–,–,–,0.926,> 1
"U031 (kidney, adherent)",–,–,0.417,0.184,0.951,> 5.12,0.671,0.191
"KG-1 (acute myeloid leukaemia, suspension)",–,–,0.989,> 5,0.958,> 5.12,0.935,> 1
"SK-ES-1 (Ewing sarcoma, semi-adherent)",–,–,0.887,> 5,0.909,> 5.12,0.9,> 1
"MOLT-16 (T-cell lymphoblastic leukaemia, suspension)",0.263,0.157,–,–,–,–,0.727,0.235
"PC-3 (prostate, adherent)",–,–,0.883,> 5,0.927,> 5.12,0.761,0.429
"HCC1806 (breast, adherent)",–,–,0.989,> 5,0.955,> 5.12,0.379,0.0299
"U-266 (myeloma, semi-adherent)",0.981,> 10,–,–,–,–,0.98,> 1
"HCC70 (breast, adherent)",–,–,0.836,3.24,0.703,1.18,0.721,0.262
"LN-229 (glioma, adherent)",–,–,0.943,> 5,0.914,> 5.12,0.752,0.329
"MV-4-11 (leukaemia, suspension)",–,–,0.842,2.64,0.81,2.13,0.63,0.133
"COR-L32 (small cell lung carcinoma, suspension)",0.959,> 10,–,–,–,–,0.818,> 1
"HL-60 (acute myeloid leukaemia, suspension)",–,–,0.728,1.28,0.896,> 5.12,0.864,0.73
"CAMA-1 (breast, adherent)",–,–,0.909,> 5,0.624,0.77,0.878,> 1
"U251 (glioma, adherent)",–,–,0.931,> 5,0.861,4.02,0.66,0.17
"HT-1080 (fibrosarcoma, adherent)",–,–,0.938,> 5,0.988,> 5.12,0.401,0.0345

# By IC50 is meant the dose at which the fit gives 50% viability; where the fit passes the top or lowest dose, that dose stands as a limit. For AUC the same curve is integrated over the 256-fold range of doses and scaled to a fraction: 1 means no effect, lower means more sensitive. An inferred top dose was calculated from the reported fits. For some assays here: An entry number marks a drug with two screens in the source, which often give different values.
